Test results reported in the supplement of paper PMC4967469.
IC50 is the fitted dose that halves viability relative to control wells, and lower means more sensitive; a fit beyond the top or the lowest dose is shown as a bound at that dose. AUC is the area under the same curve over the 256-fold range up to the top dose, as a fraction; the more sensitive the line, the further below 1. An inferred top dose was calculated from the reported fits. For some of these results: Drugs with an entry number were screened twice under separate entries, and the two screens often disagree.

Key:
Experiment in all cases: Viability of human cancer cell lines after 72 h of drug (GDSC screen)
[1] = compound: O=C(c1cc(Cc2n[nH]c(=O)c3ccccc23)ccc1F)N1CCN(C(=O)C2CC2)CC1 [Olaparib]
Experimental: (§1)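 Human cancer cell lines in 384-well plates, medium with 10% serum, drug for 72 h over a 256-fold dose range (nine 2-fold or five 4-fold steps up to the top dose). Adherent lines were fixed and stained with the nucleic acid dye Syto60, suspension lines read with resazurin; signal relative to control wells, capped at 0 and 100%. One two-parameter sigmoid per drug and line, fitted in a mixed model over all curves with the slope shared within a line.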

[2] = compound: CC(C)=CC[C@@H](O)C1=CC(=O)c2c(O)ccc(O)c2C1=O [Shikonin]; settings: top dose 16 µM; top dose inferred
Experimental: as §1

[3] = compound: CNC(=O)c1ccc(Nc2cc(Nc3ccccc3S(=O)(=O)C(C)C)c3cc[nH]c3n2)nc1 [HG-5-113-01]; settings: top dose 10 µM; top dose inferred
Experimental: as §1

[4] = compound: O=C1NC(=O)c2c1c(-c1ccccc1Cl)cc1[nH]c3ccc(O)cc3c21 [Wee1 inhibitor 681640]; settings: top dose 2 µM; top dose inferred
Experimental: as §1

[5] = compound: Cc1cccc(-c2[nH]c(C(C)(C)C)nc2-c2ccc3nccnc3c2)n1 [SB-525334]; settings: top dose 20 µM; top dose inferred
Experimental: as §1

[6] = compound: Cc1cc(N2CCOCC2)cc2[nH]c(-c3c(NC[C@@H](O)c4cccc(Cl)c4)cc[nH]c3=O)nc12 [BMS-536924]; settings: top dose 4 µM; screen: GDSC drug entry 1091; top dose inferred
Experimental: as §1

[7] = compound: NC(=O)c1ccc(N(C(N)=O)c2c(F)cccc2F)nc1-c1ccc(F)cc1F [VX-702]; settings: top dose 2 µM; top dose inferred
Experimental: as §1

[8] = compound: Cc1ccc(-n2nc(C(C)(C)C)cc2NC(=O)Nc2ccc(OCCN3CCOCC3)c3ccccc23)cc1 [BIRB 0796]; settings: top dose 10 µM; top dose inferred
Experimental: as §1

[9] = top dose 5 µM, screen: GDSC drug entry 1017, top dose inferred
[10] = top dose 10 µM, screen: GDSC drug entry 1495

A375 (melanoma, adherent)
AUC [1, 9]: 0.917 | IC50 [1, 9]: > 5 µM | AUC [1, 10]: 0.883 | IC50 [1, 10]: 7.45 µM | AUC [2]: 0.31 | IC50 [2]: 0.328 µM | AUC [3]: 0.665 | IC50 [3]: 1.64 µM | AUC [4]: 0.954 | IC50 [4]: > 2 µM | AUC [5]: 0.922 | IC50 [5]: > 20 µM | AUC [6]: 0.728 | IC50 [6]: 0.965 µM

A549 (lung adenocarcinoma, adherent)
AUC [3]: 0.688 | IC50 [3]: 2.26 µM | AUC [4]: 0.972 | IC50 [4]: > 2 µM | AUC [6]: 0.788 | IC50 [6]: 2 µM | AUC [7]: 0.982 | IC50 [7]: > 2 µM

A673 (rhabdomyosarcoma, adherent)
AUC [1, 10]: 0.786 | IC50 [1, 10]: 3.85 µM | AUC [2]: 0.455 | IC50 [2]: 0.764 µM | AUC [3]: 0.646 | IC50 [3]: 1.51 µM | AUC [4]: 0.986 | IC50 [4]: > 2 µM | AUC [8]: 0.986 | IC50 [8]: > 10 µM | AUC [5]: 0.976 | IC50 [5]: > 20 µM | AUC [6]: 0.789 | IC50 [6]: 1.57 µM

CADO-ES1 (Ewing sarcoma, suspension)
AUC [1, 9]: 0.978 | IC50 [1, 9]: > 5 µM | AUC [1, 10]: 0.976 | IC50 [1, 10]: > 10 µM | AUC [3]: 0.872 | IC50 [3]: 9.87 µM | AUC [4]: 0.963 | IC50 [4]: > 2 µM | AUC [8]: 0.988 | IC50 [8]: > 10 µM | AUC [5]: 0.497 | IC50 [5]: 1.22 µM | AUC [6]: 0.987 | IC50 [6]: > 4 µM | AUC [7]: 0.969 | IC50 [7]: > 2 µM

CAL-78 (chondrosarcoma, adherent)
AUC [1, 9]: 0.986 | IC50 [1, 9]: > 5 µM | AUC [1, 10]: 0.953 | IC50 [1, 10]: > 10 µM | AUC [2]: 0.676 | IC50 [2]: 3.34 µM | AUC [3]: 0.879 | IC50 [3]: > 10 µM | AUC [4]: 0.986 | IC50 [4]: > 2 µM | AUC [5]: 0.975 | IC50 [5]: > 20 µM | AUC [6]: 0.968 | IC50 [6]: > 4 µM | AUC [7]: 0.986 | IC50 [7]: > 2 µM

CL-34 (large intestine, adherent)
AUC [1, 9]: 0.984 | IC50 [1, 9]: > 5 µM | AUC [1, 10]: 0.986 | IC50 [1, 10]: > 10 µM | AUC [3]: 0.744 | IC50 [3]: 3.39 µM | AUC [4]: 0.987 | IC50 [4]: > 2 µM | AUC [8]: 0.984 | IC50 [8]: > 10 µM | AUC [6]: 0.902 | IC50 [6]: > 4 µM | AUC [7]: 0.98 | IC50 [7]: > 2 µM

D-423MG (glioma, adherent)
AUC [1, 9]: 0.923 | IC50 [1, 9]: > 5 µM | AUC [1, 10]: 0.755 | IC50 [1, 10]: 4.07 µM | AUC [3]: 0.733 | IC50 [3]: 3.41 µM | AUC [4]: 0.934 | IC50 [4]: > 2 µM | AUC [8]: 0.981 | IC50 [8]: > 10 µM | AUC [5]: 0.945 | IC50 [5]: > 20 µM | AUC [6]: 0.935 | IC50 [6]: > 4 µM | AUC [7]: 0.978 | IC50 [7]: > 2 µM

D-566MG (glioma, adherent)
AUC [1, 9]: 0.801 | IC50 [1, 9]: 2.39 µM | AUC [1, 10]: 0.849 | IC50 [1, 10]: 7.34 µM | AUC [3]: 0.701 | IC50 [3]: 2.28 µM | AUC [4]: 0.869 | IC50 [4]: 1.79 µM | AUC [8]: 0.986 | IC50 [8]: > 10 µM | AUC [5]: 0.911 | IC50 [5]: > 20 µM | AUC [6]: 0.939 | IC50 [6]: > 4 µM | AUC [7]: 0.963 | IC50 [7]: > 2 µM

DIFI (large intestine, adherent)
AUC [1, 9]: 0.988 | IC50 [1, 9]: > 5 µM | AUC [1, 10]: 0.982 | IC50 [1, 10]: > 10 µM | AUC [3]: 0.819 | IC50 [3]: 6.01 µM | AUC [4]: 0.988 | IC50 [4]: > 2 µM | AUC [8]: 0.987 | IC50 [8]: > 10 µM | AUC [6]: 0.906 | IC50 [6]: > 4 µM | AUC [7]: 0.988 | IC50 [7]: > 2 µM

ESO26 (oesophagus, adherent)
AUC [1, 9]: 0.989 | IC50 [1, 9]: > 5 µM | AUC [1, 10]: 0.973 | IC50 [1, 10]: > 10 µM | AUC [3]: 0.815 | IC50 [3]: 5.09 µM | AUC [4]: 0.987 | IC50 [4]: > 2 µM | AUC [8]: 0.988 | IC50 [8]: > 10 µM | AUC [5]: 0.589 | IC50 [5]: 2.16 µM | AUC [6]: 0.988 | IC50 [6]: > 4 µM | AUC [7]: 0.985 | IC50 [7]: > 2 µM

ESO51 (oesophagus, semi-adherent)
AUC [1, 9]: 0.908 | IC50 [1, 9]: > 5 µM | AUC [1, 10]: 0.963 | IC50 [1, 10]: > 10 µM | AUC [3]: 0.888 | IC50 [3]: > 10 µM | AUC [4]: 0.851 | IC50 [4]: > 2 µM | AUC [8]: 0.826 | IC50 [8]: 9.8 µM | AUC [5]: 0.969 | IC50 [5]: > 20 µM | AUC [6]: 0.977 | IC50 [6]: > 4 µM | AUC [7]: 0.82 | IC50 [7]: 1.82 µM

EW-22 (Ewing sarcoma, adherent)
AUC [1, 9]: 0.879 | IC50 [1, 9]: 4.77 µM | AUC [1, 10]: 0.728 | IC50 [1, 10]: 2.7 µM | AUC [3]: 0.653 | IC50 [3]: 1.63 µM | AUC [4]: 0.94 | IC50 [4]: > 2 µM | AUC [8]: 0.977 | IC50 [8]: > 10 µM | AUC [6]: 0.789 | IC50 [6]: 1.7 µM | AUC [7]: 0.988 | IC50 [7]: > 2 µM

H2591 (mesothelioma, adherent)
AUC [1, 10]: 0.98 | IC50 [1, 10]: > 10 µM | AUC [2]: 0.55 | IC50 [2]: 1.43 µM | AUC [3]: 0.836 | IC50 [3]: 9.71 µM | AUC [4]: 0.965 | IC50 [4]: > 2 µM | AUC [8]: 0.981 | IC50 [8]: > 10 µM | AUC [5]: 0.94 | IC50 [5]: > 20 µM | AUC [6]: 0.957 | IC50 [6]: > 4 µM

HCC202 (breast, adherent)
AUC [1, 9]: 0.948 | IC50 [1, 9]: > 5 µM | AUC [1, 10]: 0.95 | IC50 [1, 10]: > 10 µM | AUC [3]: 0.885 | IC50 [3]: > 10 µM | AUC [4]: 0.98 | IC50 [4]: > 2 µM | AUC [8]: 0.981 | IC50 [8]: > 10 µM | AUC [5]: 0.751 | IC50 [5]: 9.08 µM | AUC [6]: 0.973 | IC50 [6]: > 4 µM | AUC [7]: 0.98 | IC50 [7]: > 2 µM

HCC-366 (non-small cell lung carcinoma, adherent)
AUC [1, 9]: 0.988 | IC50 [1, 9]: > 5 µM | AUC [1, 10]: 0.952 | IC50 [1, 10]: > 10 µM | AUC [3]: 0.885 | IC50 [3]: > 10 µM | AUC [4]: 0.988 | IC50 [4]: > 2 µM | AUC [8]: 0.987 | IC50 [8]: > 10 µM | AUC [6]: 0.916 | IC50 [6]: > 4 µM | AUC [7]: 0.988 | IC50 [7]: > 2 µM

Jurkat (T-cell leukaemia, suspension)
AUC [3]: 0.829 | IC50 [3]: 4.76 µM | AUC [4]: 0.992 | IC50 [4]: > 2 µM | AUC [8]: 0.992 | IC50 [8]: > 10 µM | AUC [6]: 0.975 | IC50 [6]: > 4 µM | AUC [7]: 0.981 | IC50 [7]: > 2 µM

KATOIII (stomach, semi-adherent)
AUC [1, 9]: 0.99 | IC50 [1, 9]: > 5 µM | AUC [1, 10]: 0.987 | IC50 [1, 10]: > 10 µM | AUC [3]: 0.728 | IC50 [3]: 2.6 µM | AUC [4]: 0.973 | IC50 [4]: > 2 µM | AUC [8]: 0.961 | IC50 [8]: > 10 µM | AUC [6]: 0.803 | IC50 [6]: 1.78 µM | AUC [7]: 0.98 | IC50 [7]: > 2 µM

KU-19-19 (bladder, adherent)
AUC [1, 9]: 0.977 | IC50 [1, 9]: > 5 µM | AUC [2]: 0.707 | IC50 [2]: 3.82 µM | AUC [3]: 0.664 | IC50 [3]: 1.79 µM | AUC [4]: 0.928 | IC50 [4]: > 2 µM | AUC [8]: 0.98 | IC50 [8]: > 10 µM | AUC [5]: 0.961 | IC50 [5]: > 20 µM | AUC [6]: 0.915 | IC50 [6]: > 4 µM
